Reference: paper PMC6530996, “HspB1 phosphorylation regulates its intramolecular dynamics and mechanosensitive molecular chaperone interaction with filamin C” (Science Advances, 2019)

Columns and labels:
[1] = biological target: the molecule itself; test: native MS; HspB1_(77–171) variants at 10 μM in 200 mM ammonium acetate pH 6.9, 10-fold molar excess DTT; dimer to monomers
[2] = biological target: the molecule itself; test: NMR (1H-15N HSQC spectra); 298 K, 14.1 T; 0.9 to 1 mM protein, 30 mM sodium phosphate, 2 mM EDTA pH 7.0; dimer
[3] = biological target: T1, human FLNC domains 18 to 21 (FLNC_(d18–21)), EEF-tagged (human, UniProt Q14315 1943-2408); test: co-sedimentation; HspB1 (WT or 3P) 80 μM with FLNC_(d18–21) 40 μM (2:1) in 200 mM ammonium acetate pH 6.9, 500 μM DTT, 25°C, 90 min; aliquots pelleted at 13,000g; SDS-PAGE densitometry of soluble and pelleted fractions; settings: both partners purified
T1 construct: human filamin C, domains 18 to 21, residues 1943 to 2408 of UniProt Q14315; Modified pET23a/EEF vector; No cleavage of the tags is described; also called FLNC fragment; source: E. coli BL21(DE3) pLysS, purified (HisTrap, SEC Superdex 200); not shown: EEF, C-terminal, kept
T1 sequence (looked up): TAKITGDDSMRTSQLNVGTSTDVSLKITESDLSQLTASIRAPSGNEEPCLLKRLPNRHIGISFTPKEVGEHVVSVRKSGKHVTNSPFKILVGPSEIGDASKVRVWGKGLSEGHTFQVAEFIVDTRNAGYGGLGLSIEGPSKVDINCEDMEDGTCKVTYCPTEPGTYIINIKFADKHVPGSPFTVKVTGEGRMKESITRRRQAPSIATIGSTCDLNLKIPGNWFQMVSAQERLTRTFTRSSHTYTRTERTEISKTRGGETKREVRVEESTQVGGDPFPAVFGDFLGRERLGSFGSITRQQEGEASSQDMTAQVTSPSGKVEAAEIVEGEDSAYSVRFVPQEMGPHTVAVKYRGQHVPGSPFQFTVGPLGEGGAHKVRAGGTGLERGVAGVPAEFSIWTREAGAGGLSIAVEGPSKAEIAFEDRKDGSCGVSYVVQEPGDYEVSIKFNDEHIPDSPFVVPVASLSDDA

[4] = biological target: the molecule itself; test: crystal structure; HspB1_(84–170) 16 mg/ml with 5 mM peptide in PBS pH 7.0; 22% PEG 3350, 0.02 M sodium potassium diphosphate, 0.1 M bis-tris propane pH 7.5; 2.1 Å, space group P12_(1)1

B1: ^2PHspB1_([…]) (phosphomimics of Ser78 and Ser82) (domain or fragment)
chain: not shown
notes: human HspB1, […], phosphomimics at Ser78 and Ser82; For NMR labelled with 15N or 13C,15N; also called 2P (^PSer^78-^PSer^82); not shown: His tag (from the HisTrap purification), N-terminal, cleaved
Question: Does B1 bind [1]?
Answer: binds

B2: human HspB1 α-crystallin domain, HspB1_([…]) (domain or fragment)
chain: not shown
notes: human HspB1 ACD, […]; pET28d(+) vector; The residual Gly-Ser overhang that the methods tell of 'both proteins' may also stand on this construct; also called HspB1 ACD
Question: Does B2 bind [2]?
Answer: binds

B3: HspB1_([…]) 1P (phosphomimic of Ser82) (domain or fragment)
chain: not shown
notes: human HspB1, […], one phosphomimic at Ser82; The legend names the site (Ser82); the methods give the phosphomimic mutation S82D; also called 1P (^PSer^82); not shown: His tag (from the HisTrap purification), N-terminal, cleaved
Question: Does B3 bind [1]?
Answer: binds

B4: HspB1_([…]), wild type (domain or fragment)
chain: not shown
notes: human HspB1, […] (principal phosphorylation region and ACD); Same vector (pET28d(+)) as the ACD construct; also called HspB1_([…]) WT; source: E. coli BL21(DE3), purified; not shown: His tag (from the HisTrap purification), N-terminal, cleaved
Question: B4 was tested. Which “stoichiometry N” value [1] did it give?
Answer: 2

B5: ^3PHspB1, full-length human HspB1 triple phosphomimic (S15D, S78D, S82D) (natural protein)
chain: not shown
notes: human HspB1 (Hsp27), full length, with three phosphomimetic substitutions; source: E. coli BL21(DE3), purified (HisTrap, SUMO hydrolase, SEC Superdex 200); not shown: SUMO, N-terminal, cleaved; His6, N-terminal, cleaved
Question: Does B5 bind [3]?
Answer: binds

B6: HspB1_([…]), ACD construct for crystallography (domain or fragment)
chain: not shown
notes: human HspB1 ACD, […] (K171 deleted from the […] construct); Dimer in the crystal (four dimers in the asymmetric unit); The residual Gly-Ser overhang that the methods tell of 'both proteins' may also stand on this construct; also called HspB1 ACD
Question: Does B6 bind [4]?
Answer: binds
